Results published in paper PMC7364478, “FRET-based Tau seeding assay does not represent prion-like templated assembly of Tau filaments” (Molecular Neurodegeneration, 2020).

Target: the molecule itself
Assay: light scattering (90° angle, 350 nm) of aggregation; 50 μM Tau protein with 12.5 μM heparin 16,000 in BES buffer pH 7.0 (20 mM BES, 25 mM NaCl), 37 °C, read at time intervals; self-assembly into aggregates or fibers

B1: Tau^RDΔK (Tau repeat domain, K18 construct, (M)[…] with deletion of K280) (domain or fragment)
chain: not shown
notes: start methionine added before Q244, printed as (M); Tau (MAPT), human, 4-repeat construct K18, […], numbers of hTau40 (2N4R, 441 residues); also called K18 ΔK280; Tau repeat domain with pro-aggregant mutation ΔK280; source: E. coli, purified as described earlier [8]
B1 was tested, and the “overall extent of aggregation (light scattering), fold over Tau^RDΔK-GFP” value was 3 fold.
